The whole screen tested about 340,000 compounds, of which about 120 (0.035%) were called active. The inconclusive results got no clear call from the source; some entries with a clear call stand among them for comparison.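 The calls were made as follows: active = mean replicate inhibition at least 50% and at least half of replicates individually reaching 50%; inconclusive = only one of the two criteria met; inactive = neither criterion met.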 Some compounds were tested as several samples or in several runs, with calls that do not always agree.
assay: blockers of twin-arginine translocation in E. coli – MC4100, TorA-mCherry reporter, fluorescence, single point, primary screen (AID 488895);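 also: exported cargo escapes ClpAP degradation while cytoplasmic cargo is degraded and loses fluorescence; 0% = median of neutral control wells and 100% = median of NaSCN control wells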; settings: E. coli MC4100 TorA-mCherry Tat export, at 10 µM, active compounds read high

Which inhibition does the source give for `CC(C)(C)c1ccc(CSc2cnn(C(C)(C)C)c(=O)c2Cl)cc1` here?
The inhibition was inactive: -3.59%.

For `CCCCCCCCC(=O)NCc1ccc(O)c(OC)c1`, which inhibition is on record?
The inhibition was inactive: 5.26%.

For `CC1(C)CC(n2[nH]c(=O)c3c2NC(=O)CSC3c2ccc(F)cc2)CCO1` (configuration not stated), which inhibition is on record?
Its inhibition is inconclusive: 26.7%.

Which inhibition does the source give for `Cc1[nH]c2ccc(OC(F)(F)F)cc2c1CCNCc1ccc(Cl)cc1` here?
Its inhibition is inactive: -9.4%.

For `COc1ccc(C(=O)C2(C)N(O)C(C)C(c3cccs3)=[N+]2[O-])cc1` (configuration not stated), which inhibition is on record?
Its inhibition is inconclusive: 26.6%.

With `CC12CC[C@H]3[C@@H](CCC4(O)C[C@H](O)CCC34/C=N/NC(=O)c3ccccc3[N+](=O)[O-])C1(O)CCC2C1=CC(=O)OC1` (some centres not stated) as the compound, how does the inhibition read?
Its inhibition is inconclusive: 33.8%.

Which inhibition does the source give for `Cc1cc(O)c2c(c1)C(=O)C13C(=C2O)C(=O)[C@H]2[C@@H](O)[C@@H]1[C@H]1[C@H](O)[C@@H]3C(=O)C3=C(O)c4c(O)cc(C)cc4C(=O)C312` (some centres not stated) here?
The inhibition was active: 130%.

For `CCc1ccccc1NC(=O)CNC1CCCCC1`, which inhibition is on record?
The inhibition was inconclusive: 23.6%.

With `C=C[C@@H]1C[C@@]1(C)[C@@H](NP(=O)(c1ccccc1)c1ccccc1)c1ccccc1` as the compound, how does the inhibition read?
The inhibition was inconclusive: 17.7%.

With `CC(C)c1ccc(OCC(=O)N2CCN(C)CC2)c(Br)c1` as the compound, how does the inhibition read?
Its inhibition is inconclusive: 40.6%.

For `COC(=O)C(C)Oc1cc(C)cc2oc(=O)c3c(c12)CCCC3` (configuration not stated), which inhibition is on record?
Its inhibition is inconclusive: 27%.

With `CN(C)[C@@H]1C(=O)C(C(N)=O)=C(O)[C@@]2(O)C(=O)C3=C(O)c4c(O)cccc4[C@@](C)(O)C3[C@H](O)C12` (some centres not stated) as the compound, how does the inhibition read?
The inhibition was active: 150%.

With `O=c1[nH]c(=O)n(CCc2ccccc2)c(O)c1C=NCc1ccc2c(c1)OCO2` as the compound, how does the inhibition read?
Its inhibition is inconclusive: 22.6%.

With `N=C1c2ccccc2CN1c1ncccn1` as the compound, how does the inhibition read?
The inhibition was inconclusive: 25.6%.

For `Oc1ccc(Cl)c(Cl)c1Cl`, which inhibition is on record?
Its inhibition is inactive: -2.71%.

Which inhibition does the source give for `O=C1/C(=C/c2ccc([N+](=O)[O-])cc2)N2CCC1CC2` here?
The inhibition was inconclusive: 22%.

For `COC(=O)C1=C(c2ccc(C(C)=O)cc2)C[C@@H]2CC[C@H]1N2C(=O)NCC1CC1`, which inhibition is on record?
The inhibition was inconclusive: 36.8%.

Which inhibition does the source give for `C[CH2][Hg][S]c1ccccc1C(=O)O` here?
Its inhibition is inactive: -126%.

Which inhibition does the source give for `CCCN1CC(C)C(OC(C)=O)(c2ccccc2)CC1C` (configuration not stated) here?
Its inhibition is inconclusive: 31%.

Which inhibition does the source give for `CC[C@H](C)/C=C(C)/C=C/C1=CC2=C(Cl)C(=O)[C@](C)(OC(C)=O)C(=O)C2=CO1` here?
Its inhibition is inactive: 0.447%.

With `CN(C)[C@@H]1C(=O)C(C(N)=O)=C(O)[C@@]2(O)C(=O)C3=C(O)c4c(O)cccc4[C@@](C)(O)C3C[C@@H]12` (some centres not stated) as the compound, how does the inhibition read?
Its inhibition is active: 147%.

With `COC(=O)C1=C(c2ccc3ccccc3c2)C[C@@H]2CC[C@H]1N2C(=O)NC1CCCCC1` as the compound, how does the inhibition read?
The inhibition was inconclusive: 31.2%.

With `Cc1ccc(C(=O)N2CC2C)cc1` (configuration not stated) as the compound, how does the inhibition read?
The inhibition was inconclusive: 30.8%.

With `Nc1cc(Cl)c2nonc2c1[N+](=O)[O-]` as the compound, how does the inhibition read?
The inhibition was inactive: -20.6%.

Which inhibition does the source give for `Oc1c(Br)c(Br)c(Br)c(Br)c1Br` here?
The inhibition was inactive: -2.03%.

With `CCOc1ccc(CC2(CCc3ccncc3)C(=O)NC(=O)NC2=O)cc1` as the compound, how does the inhibition read?
Its inhibition is inconclusive: 26%.

For `Cc1ccccc1NC(=NCCCN1CC1)Nc1ccccc1C`, which inhibition is on record?
Its inhibition is inactive: -0.655%.

For `COc1cc2c3c(c1OC)Oc1ccc(cc1)C[C@H]1c4c(cc(OC)c(OC)c4Oc4ccc(cc4)C[C@@H]3N(C)CC2)CCN1C`, which inhibition is on record?
Its inhibition is active: 54.2%.

With `COc1cc2cc(C(=O)N3CC(COS(C)(=O)=O)c4ccc(O)cc43)[nH]c2c(OC)c1OC` (configuration not stated) as the compound, how does the inhibition read?
The inhibition was active: 57.7%.

For `O=C1CC[C@@]2(O)[C@H]3Cc4ccc(O)c5c4[C@@]2(CCN3CC2CC2)[C@H]1O5`, which inhibition is on record?
Its inhibition is inconclusive: 33.3%.

With `S=C(N1CCCCCC1)N1CC1` as the compound, how does the inhibition read?
The inhibition was inconclusive: 34.2%.

For `CC[C@H]1CN2CCC1C[C@@H]2[C@@H](O)c1ccnc2ccc(OC)cc12` (some centres not stated), which inhibition is on record?
The inhibition was inconclusive: 31.6%.

For `O=[N+]([O-])c1oc2ccc3ccccc3c2c1CCO`, which inhibition is on record?
The inhibition was inactive: -7.87%.

With `COC(=O)C1=C(c2cccc(Cl)c2)C[C@@H]2CC[C@H]1N2C(=O)NCC1CC1` as the compound, how does the inhibition read?
The inhibition was inconclusive: 32.3%.

For `CCN(CC)CCCNC(=O)c1c(O)c2ccccc2n(Cc2ccccc2)c1=O`, which inhibition is on record?
The inhibition was inconclusive: 30.1%.

For `COc1ccc(N/N=C/c2c(O)n(-c3cccc(C)c3)c(=O)[nH]c2=O)cc1`, which inhibition is on record?
Its inhibition is inactive: -1.61%.

Which inhibition does the source give for `CN(C)C1C(=O)C(C(N)=O)=C(O)C2(O)C(=O)C3=C(O)c4c(O)cccc4C(C)(O)C3CC12` (configuration not stated) here?
The inhibition was active: 147%.

For `CCOc1ccccc1N1C(=O)NC(=O)/C(=C/c2ccc3c4c(cccc24)CC3)C1=O`, which inhibition is on record?
Its inhibition is inactive: -7.55%.

With `c1ccc(C2NCc3ccccc3-n3cccc32)cc1` (configuration not stated) as the compound, how does the inhibition read?
Its inhibition is inconclusive: 27%.

With `CN1CCN(c2ccc([N+](=O)[O-])c3no[n+]([O-])c23)CC1` as the compound, how does the inhibition read?
The inhibition was active: 50.8%.

For `CO[C@H]1[C@@H](OC)CC(OC2OC(CO)C(O)C(O)C2O)/C(=C\C#N)[C@@H]1O` (some centres not stated), which inhibition is on record?
The inhibition was inconclusive: 30.5%.

With `CN(C)[C@@H]1C(=O)C(C(N)=O)=C(O)[C@@]2(O)C(=O)C3=C(O)c4c(O)ccc(Cl)c4[C@@](C)(O)[C@H]3C[C@@H]12` as the compound, how does the inhibition read?
Its inhibition is active: 163%.

For `Cc1ncc(CNC(=O)N(CCCl)N=O)c(N)n1`, which inhibition is on record?
The inhibition was inconclusive: 39.3%.

For `Cc1ccccc1[N+](=O)[O-]`, which inhibition is on record?
Its inhibition is inactive: 5.59%.

For `N#CC1c2ccccc2-n2nncc2CN1Cc1cc(Cl)cc(Cl)c1` (configuration not stated), which inhibition is on record?
The inhibition was active: 56.3%.

For `CN(C)[C@@H]1C(=O)C(C(N)=O)=C(O)[C@@]2(O)C(=O)C3=C(O)c4c(O)ccc(Cl)c4[C@@](C)(O)C3C[C@@H]12` (some centres not stated), which inhibition is on record?
Its inhibition is active: 150%.

With `COc1ccccc1OC(=O)c1ccc(C)c(S(=O)(=O)N2CCOCC2)c1` as the compound, how does the inhibition read?
The inhibition was inconclusive: 26.3%.

Which inhibition does the source give for `CC(C)CCNC(=O)c1c(N)n(CC2CCCO2)c2nc3ccccc3nc12` (configuration not stated) here?
The inhibition was inconclusive: 21.2%.

With `COc1ccc(CC(=O)N(C)C2CCCN(Cc3ccccc3F)C2)cc1OC` (configuration not stated) as the compound, how does the inhibition read?
The inhibition was inconclusive: 28.6%.

Which inhibition does the source give for `COc1ccc2c3c([nH]c2c1)C(C)=NCC3` here?
Its inhibition is inconclusive: 35%.

With `CN1CCC2(CC1)c1ccccc1-c1ccccc12` as the compound, how does the inhibition read?
Its inhibition is inconclusive: 28.2%.

Which inhibition does the source give for `CC(C)COP(=O)(OCC(C)C)C(O)c1cccnc1` (configuration not stated) here?
The inhibition was inconclusive: 42.3%.

Which inhibition does the source give for `CC(C(=O)O)N(C(=O)c1ccccc1)c1ccc(F)c(Cl)c1` (configuration not stated) here?
The inhibition was inconclusive: 29.7%.

Which inhibition does the source give for `CC1CCN(CC(=O)c2ccccc2Cl)CC1` here?
The inhibition was inconclusive: 28.5%.

Which inhibition does the source give for `Cc1ccc2c(c1)C1CN(C)CCC1N2C(=O)/C(C#N)=C/c1ccc2c(c1)OCO2` (configuration not stated) here?
Its inhibition is inconclusive: 28.3%.

For `CC(N)C(=O)NC1C2C(=C(O)CC(O)C2O)C(=O)OC1(C)C(Cl)Cl` (configuration not stated), which inhibition is on record?
Its inhibition is active: 82.3%.

With `Oc1cc(Cl)ccc1Oc1ccc(Cl)cc1Cl` as the compound, how does the inhibition read?
The inhibition was active: 137%.

For `Cc1ccc(-c2nc(N3CCOCC3)s[n+]2-c2ccccc2)cc1`, which inhibition is on record?
The inhibition was inactive: 0.324%.

Which inhibition does the source give for `O=C(c1ccc(Cl)cc1)C1CCCN(Cc2ccc3c(c2)OCCO3)C1` (configuration not stated) here?
The inhibition was inconclusive: 27.7%.

Which inhibition does the source give for `Cn1ncnc2c(=O)n(C)c(=O)nc1-2` here?
The inhibition was active: 128%.

For `CCCCOP(=O)(OCCCC)/C(C#N)=C(/C)O`, which inhibition is on record?
The inhibition was inconclusive: 24.7%.

Which inhibition does the source give for `O=C(N/N=C/c1c(O)n(CCC2=CCCCC2)c(=S)[nH]c1=O)c1ccccc1` here?
The inhibition was inactive: -0.197%.

With `CN(C)C1C(=O)C(C(N)=O)=C(O)C2(O)C(=O)C3=C(O)c4c(O)cccc4C(C)(O)C3C(O)C12` (configuration not stated) as the compound, how does the inhibition read?
The inhibition was active: 138%.

For `CC(C)(C)C(=O)C(Oc1ccc(Cl)cc1)n1cncn1` (configuration not stated), which inhibition is on record?
Its inhibition is inconclusive: 29.1%.

For `CN(C)C(=O)Oc1ccc(-c2nnco2)cc1`, which inhibition is on record?
The inhibition was inconclusive: 27%.

Which inhibition does the source give for `Cc1nn(Cc2ccccc2)c(C)c1C(=O)NCc1ccccc1` here?
Its inhibition is active: 54.6%.

For `Cc1ccc(-c2cc(-c3ccc(C)cc3)[n+](-c3ccc(C(=O)[O-])cc3)c(-c3ccc(C)cc3)c2)cc1`, which inhibition is on record?
The inhibition was inconclusive: 25.9%.

— PubChem BioAssay AID488895 (Broad Institute, 2010)
